In PubChem BioAssay AID1963576 (National Center for Advancing Translational Sciences (NCATS), 2024):
The whole screen tested about 46,000 compounds, of which about 60 (0.1%) were called active. Not shown: some 3% with an inconclusive outcome. Calls follow the shape of the dose curve; as a rule, active = well fitted inhibition curve with a large enough effect; inconclusive = small, poorly fitted or top-dose-only effect; inactive = no such curve, though single readings can be large or run the other way. The list shows a part of the results.

Assay: Primary qHTS assay for Inhibitors of ovarian cancer metastasis using an organotypic tumor microenvironment (TME) model. Also: nearly all actives have a fitted effect of over 65% in size.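 As to activity change, negative = inhibition: plate controls were DMSO wells for no effect and tomatine positive control wells for full effect.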
Conditions: SKOV3ip1-GFP adhesion/invasion on 3D omental model, fluorescence; series mostly up to 45.8 µM; activity change, negative = inhibition: at the top concentration
Summary of the method: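 A 3D layer of primary human omental fibroblasts, mesothelial cells, fibronectin and collagen I, grown 48 hr, received SKOV3ip1-GFP cells in serum-free medium plus compounds at 0.36-46 umol/L. After 2 hr RT and 16 hr 37 C, fixed adherent GFP cells were counted; normalized to DMSO and tomatine.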

Activity change, negative = inhibition, inactive:
Cc1ccc2nc(COc3cccc(NC(=O)COc4ccc(F)cc4)c3)cc(=O)n2c1 -11.2%
O=C(Nc1cccc(-c2nc3ccccc3o2)c1)c1cccc2c(Cl)cccc12 1.89%
COCCNC(=O)c1[nH]c2cc(C)ccc2c1Sc1ccc(Cl)cc1 16.8%
CC(C)(C)OC(=O)N1CCC(c2c(C(=O)Nc3ccc4c(c3)OCO4)cnn2-c2ccccc2)CC1 -15.9%
Cc1ccccc1NC(=O)c1ccc(N(Cc2ccccc2)S(C)(=O)=O)cc1 1.35%
COc1ccc(CNC(=O)c2cnc3ccc(C)cn3c2=O)cc1 7.39%
O=C(COc1ccccc1)OCc1cc(=O)n2nc(-c3cccs3)sc2n1 -20.7%
CC(C)OC(=O)OCOP(=O)(CO[C@H](C)Cn1cnc2c(N)ncnc21)OCOC(=O)OC(C)C 11.3%
CCOCCCn1c(=N)c(S(=O)(=O)c2ccc(Cl)cc2)cc2c(=O)n3cccc(C)c3nc21 7.42%
COC(=O)c1ccccc1NC(=O)CCS(=O)(=O)c1nc(-c2ccc3c(c2)OCO3)cc(C(F)(F)F)n1 -11.6%
COC(=O)c1ccc(NC(=O)CCc2c(C)nn(-c3ccc(N4CCCCC4)nn3)c2C)cc1 -3.39%
C[C@@H]1[C@H](C)CC[C@]2(C(=O)O)CC[C@]3(C)C(=CC[C@@H]4[C@@]5(C)CC[C@H](O)C(C)(C)[C@H]5CC[C@]43C)[C@@H]12 4.13% [at 92.2 µM]
COc1ccccc1NC(=O)C(=O)NCC(c1cccnc1)N1CCc2ccccc2C1 (stereo not given) 6.85%
COc1cccc(CNC(=O)Cn2c(=O)oc3cc(S(=O)(=O)N4CCCCCC4)ccc32)c1 -2.51%
C=Cc1ccc(Cn2c(SCC(=O)N3CCN(c4ccc(F)cc4)CC3)nc3ccccc32)cc1 4.99%
Cc1ccccc1CNC(=O)C(=O)NCC(c1cccs1)S(=O)(=O)c1cccs1 (stereo not given) 0.878%
COC(=O)c1cccc(CN2C(=O)SC(Nc3ccc(C)cc3)C2=O)c1 (stereo not given) 1.31%
CCc1ccc(NC(=O)Cn2c(=O)c3cc(Cl)ccc3n3nncc23)cc1 0.922%
CN1CC(=O)N(CC(=O)Nc2ccc(OC(F)(F)F)cc2)c2ccccc2C1=O 7.41%
CCOc1ccc(-c2cc(C(=O)NCCc3ccc(OC)c(OC)c3)[nH]n2)cc1 -1.11%
COc1ccc(-n2nc(C(=O)Nc3cc(C)ccn3)c3c4ccccc4n(C)c3c2=O)cc1Cl -1.18%
CC(=O)Nc1nonc1-c1nnc(SCc2ccccc2)n1C -1.16%
CC(=O)c1ccc(N2CCN(c3ccc4cc(S(=O)(=O)N5CCC(C)CC5)ccc4n3)CC2)cc1 4.2%
COc1cc(C2CC(=O)Nc3c2c(=O)n(C)c2ncnn32)cc(OC)c1OC (stereo not given) 9.9%
CCOC(=O)c1ccc(NC(=O)CCc2nc3cccnc3n2Cc2cccs2)cc1 0.519%
Cc1cccc(NC(=O)/C(C#N)=C/c2ccc(C)o2)c1 -4.36%
Cc1ccc(S(=O)(=O)c2cn(CC(=O)Nc3ccc(Cl)cc3)c3ccc(F)cc3c2=O)cc1C -19%
Cc1cccc(Cn2c(Cc3ccccc3)nc3ccccc32)c1 -2.41%
CSc1ccc(CCNC(=O)c2c(C)oc3ncn(C)c(=O)c23)cc1 -1.31%
COc1ccccc1N1CCN(c2ncnc3c2c(-c2ccccc2)cn3-c2cccc(C)c2)CC1 2.72%
CC1CCN(S(=O)(=O)c2csc(C(N)=O)c2)CC1 -7.97%
CCN1CCN(c2ncnc3c2cnn3-c2cc(Cl)ccc2C)CC1 2.12%
CCOC(=O)c1c(S(=O)(=O)NCC(=O)N(C)Cc2ccccc2)c(C)n(C)c1C 3.98%
CCOC(=O)c1cnc(N2CCN(c3ccc(OC)cc3)CC2)c2ccccc12 -7.3%
CCOc1ccc2c(c1)c(=O)c(S(=O)(=O)c1ccc(C)cc1)cn2Cc1ccccc1Cl 8.54%
COc1ccc(-c2cc(=O)c3c(O)cc(O[C@@H]4O[C@H](CO[C@@H]5O[C@@H](C)[C@H](O)[C@@H](O)[C@@H]5O)[C@@H](O)[C@H](O)[C@@H]4O)cc3o2)cc1O 0.669%
CC(=O)Nc1nonc1-c1nnc(SCC(=O)Nc2ccc(C)c(Cl)c2)n1C 2.25%
O=C(CSc1oc(-c2ccc(F)cc2)nc1S(=O)(=O)c1ccc(Br)cc1)NC1CCCCC1 -4.99%
CCCOc1ccc(C2c3c(oc4ccc(F)cc4c3=O)C(=O)N2CCc2ccc(OC)cc2)cc1 (stereo not given) 4.59%
Cc1cccc(CN2CCC(CNc3ncnc4onc(-c5ccc(Cl)cc5)c34)CC2)c1 -3.56%
CCCCOC(=O)c1ccc(Nc2ncnc3c2cnn3-c2cccc(C)c2)cc1 -8.18%
Cc1ccc(CNC(=O)CN2C(=O)CC(c3ccc(C)c(C)c3)=Nc3ccccc32)cc1 2.44%
COc1ccc(-c2nc(S(=O)(=O)c3ccc(C)cc3)c(N3CCCCC3)o2)cc1 -6.04%
CCCCN(CC)C(=O)CCCn1c(=O)c2cccn2c2ccccc21 -0.946%
COc1cccc(N2CCN(c3ncnc4c3c(-c3ccccc3)cn4-c3ccc(F)cc3)CC2)c1 -17.9%
O=C(NCc1cccc(Cl)c1)NCc1noc2ccccc12 4.41%
COc1ccccc1NC(=O)CSc1nc2c(oc3ccccc32)c(=O)n1Cc1ccco1 109%
Cn1cnc([N+](=O)[O-])c1Sc1ncnc2nc[nH]c12 14%
COc1ccc(NC(=O)C2CCCN(S(=O)(=O)c3cccc4nonc34)C2)cc1Cl (stereo not given) 5.23%

outcome, inactive:
CCc1nn(CC(=O)NC(C)CC)c(=O)c2cc3occc3n12 (stereo not given)
Cc1c(Cl)cccc1NC(=O)c1cc2nc(-c3ccc4c(c3)OCO4)cc(C(F)(F)F)n2n1
COc1ccccc1CNc1ncnc2c1nnn2C
COC(=O)c1c(-c2cccs2)csc1NC(=O)c1ccc(C(C)C)cc1
O=C(NCc1ccc2c(c1)CCN2C(=O)c1ccncc1)c1ccccc1F
O=C(NCc1ccc(F)cc1)c1ccc2oc(=O)n(Cc3ccccc3)c2c1
O=c1c2oc3ccccc3c2n(Cc2cccc(F)c2)c(=O)n1Cc1ccc2c(c1)OCO2
CCC(=O)Nc1cccc(-c2nc3cc(C)ccc3o2)c1
O=C(CN1c2ccccc2S(=O)(=O)c2ccccc21)Nc1cccc(C(F)(F)F)c1
COc1ccc(N2CCN(C(=O)C3CCN(c4nc5ccc(C)cc5[nH]4)CC3)CC2)cc1
Clc1cccc(-n2cc(-c3ccccc3)c3c(NC4CCCC4)ncnc32)c1
